Measurements: PubChem BioAssay AID588591 (National Center for Advancing Translational Sciences (NCATS), 2011)
Among all 390,000 compounds or so, about 4,700 (1.2%) were called active. This list was built around the results that the source calls inconclusive (neither active nor inactive); the mix of calls is not that of the screen. Calls follow the shape of the dose curve; as a rule, active = well fitted inhibition curve with a large enough effect; inconclusive = small, poorly fitted or top-dose-only effect, or another doubt; inactive = no such curve, though single readings can be large or run the other way. A potency beside an inconclusive call is a rough fit, not a confirmed value.

biological target: DNA polymerase eta (Homo sapiens) (UniProt Q9Y253); test: qHTS for Inhibitors of Polymerase Eta; conditions: recombinant Pol eta, fluorescent DNA replication assay; series mostly up to 114 µM
Summary of the method: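 Pol eta at 10 nM preincubated with compounds 15 min at room temperature; reaction started with fluorescent substrate (50 nM final) and read kinetically at 0 and 10 min.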
Potency is read from the fitted curve at half-maximal effect; tags tell the direction and shape of the fitted curve.

Chain of UniProt Q9Y253 (Q9Y253 whole entry, looked up): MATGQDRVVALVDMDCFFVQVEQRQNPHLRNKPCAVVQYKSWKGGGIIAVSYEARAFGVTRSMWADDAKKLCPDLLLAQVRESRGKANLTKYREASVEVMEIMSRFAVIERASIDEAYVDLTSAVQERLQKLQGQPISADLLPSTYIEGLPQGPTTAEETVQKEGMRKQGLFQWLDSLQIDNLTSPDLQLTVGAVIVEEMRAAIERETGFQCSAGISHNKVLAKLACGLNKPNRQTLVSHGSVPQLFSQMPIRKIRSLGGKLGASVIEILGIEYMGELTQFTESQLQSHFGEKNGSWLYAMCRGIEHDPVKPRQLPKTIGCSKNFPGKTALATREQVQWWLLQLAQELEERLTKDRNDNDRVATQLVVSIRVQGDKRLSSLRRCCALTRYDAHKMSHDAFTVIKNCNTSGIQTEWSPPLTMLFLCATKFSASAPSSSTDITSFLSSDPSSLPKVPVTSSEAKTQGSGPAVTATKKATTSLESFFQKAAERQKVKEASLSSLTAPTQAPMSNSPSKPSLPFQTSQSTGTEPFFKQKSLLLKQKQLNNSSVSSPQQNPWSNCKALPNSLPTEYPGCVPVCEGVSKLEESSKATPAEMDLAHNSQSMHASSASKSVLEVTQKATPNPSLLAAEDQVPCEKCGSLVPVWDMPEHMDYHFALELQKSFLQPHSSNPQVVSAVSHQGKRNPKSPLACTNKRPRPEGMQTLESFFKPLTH

Row | SMILES | Potency
1 | CC(C)(C)c1ccc(-c2noc(CNC(=O)c3ccco3)n2)cc1 | inconclusive: 100 µM [inhibitor, partial curve, poor fit]
2 | O=C(Nc1cccc(NC(=O)c2cccs2)c1)c1ccc(Br)o1 | inactive
3 | CCN(CC)S(=O)(=O)c1ccc(N2CCCC2)c(NS(=O)(=O)c2ccc([N+](=O)[O-])cc2)c1 | inconclusive: 79.4 µM [inhibitor, partial curve, poor fit]
4 | CCOc1cc2c(cc1/C=C(/C#N)c1ccc(C(=O)O)cc1)OCO2 | inconclusive: 50.1 µM [inhibitor, partial curve]
5 | COc1ccc2occ(CC(=O)Nc3ccc(S(=O)(=O)Nc4nc(C)cc(C)n4)cc3)c2c1 | active: 25.1 µM
6 | O=c1cc(O)c2sc3nc(C(F)(F)F)c4c(c3c2[nH]1)CCCCC4 | inactive
7 | CCN(c1ccccc1)c1nnc(NC(=O)Nc2ccc(Br)cc2F)s1 | inactive
8 | CN(C)C(CNS(=O)(=O)c1cc([N+](=O)[O-])ccc1Cl)c1ccco1 (configuration not stated) | active: 50.1 µM
9 | COc1cc([N+](=O)[O-])ccc1NC(=O)COC(=O)c1ccc(NC(N)=O)cc1 | inconclusive: 10 µM [inhibitor, full curve, poor fit]
10 | CCOc1ccc(NC(=O)c2oc3ccccc3c2NC(=O)c2c(F)cccc2F)cc1 | inconclusive: 50.1 µM [inhibitor, partial curve, poor fit]
11 | COc1ccc(NC(=O)C(Cl)=C(Cl)Cl)cn1 | inactive
12 | COc1ccccc1N1CCN(C(=O)CSc2nc3ccccc3nc2Cc2ccccc2)CC1 | inactive
13 | COc1ccc2[nH]c3c(NCCC4=CCCCC4)ncnc3c2c1 | inconclusive: 50.1 µM [inhibitor, partial curve, poor fit]
14 | CC1(C)Cc2c(c(-c3ccco3)[nH]c(=O)c2C#N)CS1 | inconclusive: 15.8 µM [inhibitor, full curve, poor fit]
15 | O=C1C=C(c2ccc(C(=O)O)c(Cl)c2)C[C@@H](c2ccc3c(c2)OCO3)C1 | active: 50.1 µM
16 | CN(C(=O)CCS(=O)(=O)c1cc2c(cc1Cl)NC(=O)CO2)C1CCCCC1 | inconclusive: 89.1 µM [inhibitor, partial curve, poor fit]
17 | CCn1c(C(=O)N2CCCC(C(=O)N3CCN(c4cc(C)ccc4C)CC3)C2)cc2sccc21 (configuration not stated) | inactive
18 | COc1cc(C=NNC(=O)c2ccc(NS(=O)(=O)c3cccs3)cc2)cc(Br)c1O | inconclusive: 39.8 µM [inhibitor, partial curve, poor fit]
19 | Cc1ccc(/C=N/Nc2ccc(C(=O)O)cc2)s1 | active: 39.8 µM
20 | Cc1ccccc1NC(=O)CN1C(=O)S/C(=C\c2ccc(-c3cc(C(=O)O)ccc3C)o2)C1=O | inconclusive: 7.94 µM [inhibitor, full curve, poor fit]
21 | O=C1c2cccc3cc([N+](=O)[O-])cc(c23)C(=O)N1/N=C/c1ccc(O)cc1O | active: 50.1 µM
22 | CS/C(Nc1cc(Cl)ccc1Cl)=C(/C#N)C(=O)c1ccco1 | inconclusive: 56.2 µM [inhibitor, partial curve, poor fit]
23 | O=C(Nc1ccc(N2CCOCC2)c(S(=O)(=O)Nc2ccc(Cl)cc2)c1)c1ccc(=O)[nH]n1 | active: 20 µM

Row | SMILES | Potency
24 | Cc1ccnc(NS(=O)(=O)c2ccc(NS(=O)(=O)c3cccs3)cc2)n1 | inconclusive: 15.8 µM [inhibitor, full curve, poor fit]
25 | COc1ccc(N2Cc3cccc(C(=O)Nc4ccc(F)cc4)c3C2=O)cc1 | inconclusive: 79.4 µM [inhibitor, partial curve]
26 | COC(=O)c1ccccc1NC(=O)Cn1nnc(-c2ccc3c(c2)OCO3)n1 | inconclusive: 17.8 µM [inhibitor, partial curve, poor fit]
27 | CC(=O)c1c(C)[nH]c(C(=O)Nc2nc(-c3ccccc3)c(C)s2)c1C | inconclusive: 39.8 µM [inhibitor, partial curve, poor fit]
28 | CCCCn1c(CNC(=O)C23CC4CC(CC(C4)C2)C3)nnc1SCC(=O)Nc1ccc(C)cc1 | inconclusive: 56.2 µM [inhibitor, partial curve, poor fit]
29 | Cc1ccc(-c2nc3sc4c(N)ncnc4c3c3c2CCCC3)cc1 | inconclusive: 10 µM [inhibitor, partial curve]
30 | Cn1cccc1/C=C1/SC(=S)N(CC(=O)O)C1=O | inactive
31 | Cc1ccc(N2CC(C(=O)Nc3ccc(S(=O)(=O)NCC4CCCO4)cc3)CC2=O)cc1 (configuration not stated) | inactive
32 | CCOc1ccccc1/C=C\c1nc(O)c([N+](=O)[O-])c(=O)[nH]1 | inconclusive: 63.1 µM [inhibitor, partial curve, poor fit]
33 | Cc1cccc(NC(=O)Cn2c(=O)n(Cc3ccc4c(c3)OCO4)c(=O)c3oc4ccccc4c32)c1C | inactive
34 | Cc1cc(C(=O)COc2cccc3cccnc23)c(C)n1C | inconclusive: 35.5 µM [inhibitor, single point]
35 | O=C(NCCc1ccccc1)C(c1cccs1)N(C(=O)CCl)c1ccc(Cl)cc1 (configuration not stated) | inconclusive: 25.1 µM [inhibitor, partial curve, poor fit]
36 | O=C1NC2=C(C(=O)CCC2)C(c2ccccc2[N+](=O)[O-])N1 (configuration not stated) | inconclusive: 20 µM [inhibitor, partial curve, poor fit]
37 | Cc1ccc(C2CC(=O)Nc3cc4c(cc32)OCCO4)cc1Br (configuration not stated) | inactive
38 | COc1cc(OC)c(NC(=O)CCS(=O)(=O)c2ccc3c(c2)oc(=O)n3C)cc1Cl | inactive
39 | Cc1ccc(-n2nnnc2SCC(=O)Nc2cccnc2Cl)cc1 | inconclusive: 28.2 µM [inhibitor, single point]
40 | Cc1ccc(CN2CCC(CO)(CC3CCCCO3)CC2)o1 (configuration not stated) | inactive
41 | Cc1ccc(-c2cc(C(=O)N3CCN(S(=O)(=O)c4ccc(Br)cc4)CC3)[nH]n2)c(C)c1 | inactive
42 | O=C(CSc1nc(O)cc(=O)n1-c1ccccc1)NCc1ccccc1 | inactive
43 | COc1cccc(/C=N/NC(=O)CCc2n[nH]c(=O)[nH]c2=O)c1O | inactive
44 | NC(=O)Cn1c(O)c(N=NC(=O)CNC(=O)/C=C/c2ccccc2)c2ccccc21 | inactive
45 | CCOC(=O)c1c(C)sc(-c2c(-c3ccccc3)[nH]c3[nH]c(=O)[nH]c(=O)c23)c1O | inconclusive: 89.1 µM [inhibitor, partial curve]
46 | CCCc1cc(C(N)=O)c(NC(=O)c2ccco2)s1 | inconclusive: 25.1 µM [inhibitor, single point]

Row | SMILES | Potency
47 | CC(C)(C)CC(=O)NCCc1csc(-c2ccccc2)n1 | inconclusive: 89.1 µM [inhibitor, partial curve, poor fit]
48 | COc1ccc(C(C)NCCC(c2ccc(OC(C)C)cc2)c2ccccc2OC)cc1 (configuration not stated) | inconclusive: 100 µM [inhibitor, partial curve, poor fit]
49 | CCOc1ccc(NC(=O)Cn2cnc3sc(C)c(S(=O)(=O)N4CCN(c5ccccc5OC)CC4)c3c2=O)cc1 | inactive
50 | CCCCN(C(=O)C(C)Oc1ccc(Br)cc1)c1c(N)n(CC(C)C)c(=O)[nH]c1=O (configuration not stated) | inactive
51 | O=C(N1CCOCC1)N1CCN(c2ccccc2F)CC1 | inactive
52 | COc1ccc(OC)c(/C=N\Nc2nccs2)c1 | inactive
53 | CC(=O)Nc1ccc(S(=O)(=O)Nc2nc(CN3CCOCC3)nc3sc4c(c23)CCCC4)cc1 | inconclusive: 20 µM [inhibitor, single point]
54 | CCc1ccc(-n2nc(C)c3c(C(=O)N4CCN(c5ccccc5)CC4)cc(C)nc32)cc1 | inconclusive: 89.1 µM [inhibitor, partial curve, poor fit]
55 | CNc1ccc(Br)cc(C(=O)/C=C/c2cccc(OC)c2)c1=O | active: 15.8 µM
56 | CCN(CC(=O)Nc1c(F)cccc1F)C(=O)C1CCCN(C(=O)c2ccc(Cl)cc2)C1 (configuration not stated) | inconclusive: 100 µM [inhibitor, partial curve, poor fit]
57 | CCN(C[C@H]1N[C@@](Cc2ccccc2)(C(=O)OC)[C@H]2C(=O)N(C)C(=O)[C@@H]12)C(=O)Nc1ccc(C(F)(F)F)cc1 | inconclusive: 79.4 µM [inhibitor, partial curve, poor fit]
58 | COCCCNC(=O)CSc1nc2c(sc3ccccc32)c(=O)n1CCc1ccc(OC)c(OC)c1 | inactive
59 | O=C(COc1c(Br)cc(Br)cc1Br)N/N=C/c1ccco1 | inactive
60 | COc1ccc(NC(=O)CSc2ccc(-c3ccco3)nn2)cc1 | inconclusive: 20 µM [inhibitor, single point]
61 | Cc1nc(NC(=O)c2ccccc2)sc1-c1csc(Nc2ccc(C(=O)O)cc2)n1 | active: 17.8 µM
62 | CCN(C(=O)COC(=O)CCOc1ccccc1C)c1c(N)n(Cc2ccccc2)c(=O)[nH]c1=O | inconclusive: 89.1 µM [inhibitor, partial curve, poor fit]
63 | COc1cc(/C=N/NC(=O)c2ccncc2)c([N+](=O)[O-])cc1OC | inactive
64 | COc1ccc(C(CNC(=S)NCc2ccccc2)N2CCCC2)cc1 (configuration not stated) | inconclusive: 89.1 µM [inhibitor, partial curve, poor fit]
65 | O=C(O)c1cccc(NS(=O)(=O)c2ccc3c4c(cccc24)C(=O)N3)c1 | inconclusive: 39.8 µM [inhibitor, full curve]
66 | Cc1ccc(C(=O)Nc2nc(-c3ccccn3)cs2)cc1S(=O)(=O)N1CCOCC1 | inconclusive: 31.6 µM [inhibitor, partial curve, poor fit]
67 | CCC(=O)OCOc1ccc(/C=C2/CCC(CN(C)C)C2=O)cc1 (configuration not stated) | active: 12.6 µM
